± gives the standard deviation of the averaged measurements. The list shows a part of the results.
These sequences were tested on PfAP2-EXP AP2 domain (GST-tagged) (assay: gcPBM binding intensity (ln(normalized median fluorescence intensity)); higher = stronger DNA binding).
Summary of the method: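 Binding intensity values are the highest Masliner-normalised natural-log median intensity among replicate spots of either probe orientation. The binding step lasted 1 h in 1× PBS with 1% milk, 0.2 mg/ml BSA, 0.5% salmon testes DNA and 0.03% Triton X-100, using GST-tagged P. falciparum DNA-binding domains expressed in E. coli on an Agilent 4 × 180k array of primer-extended double-stranded 36-bp intergenic genomic probes plus negative controls. Alexa488 anti-GST antibody and a 488 nm scan detected bound protein.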

| Sequence | gcPBM binding intensity (ln) |
| --- | --- |
| TATGGAACACACCTTAATATGTGATAAAATATGATA [GTGCAC_negctrl_site718] | 8.55 ± 0.37 |
| GTTATTAAATAATTCACACACATATATATATATATA [CACACA_site2260] | 10.3 ± 0.45 |
| TTAATACATACATTCACACACACTAAATGTATATTT [CACACA_site4105] | 8.55 ± 0.42 |
| GGGGGAAGGTTGAAGGTGCTTGATGGAGAAAAATAT | 9.81 ± 0.35 |
| TAATCGTTTTATAAATGTACAAAATTGTTATGTTAT [XGTACX_site5147] | 8.39 ± 0.4 |
| AATAGGATATGGTACATTTTTTGTATACTTTTTGTT [CACACA_negctrl_site1804] | 8.26 ± 0.43 |
| ATAAATTCTATGTATACACACATATATAATATATAT [CACACA_site2689] | 8.73 ± 0.57 |
| AAACAAGTAATTGTTATTATTATTATATTATTATTA [CACACA_negctrl_site402] | 7.86 ± 0.33 |
| TCTTATATAACGAAAGTAAAATAATATGCTAAGCAT [CACACA_negctrl_site668] | 8.35 ± 0.43 |
| CTAAAAAGAGAAGTGTGTCCTCAAATTAATATAATT [XGTACX_site1057] | 8.34 ± 0.83 |
| TTTTTTTTTTTTGAAGTGCATGTTACGATGAACAAA [GTGCAC_site9451] | 8.53 ± 0.28 |
| GAAAAAAAAAAAAATACACACAAATTGGTATAGAAT [CACACA_site380] | 8.53 ± 0.47 |
| TATATAAAAATATACACACACAAATGTATTTATATA [CACACA_site4284] | 8.02 ± 0.35 |
| AATGAATATTAAAGGAGTACACATAATAAGTAAGAA [XGTACX_site7354] | 9.21 ± 0.4 |
| AAAATAGAGTTGAATGCACACATACAAATTTTTAGG [CACACA_site9188] | 8.46 ± 0.26 |
| TTATTAAATTCTTTATTTAGCATATACAATAAAAGA [CACACA_negctrl_site1420] | 8 ± 0.44 |
| ATAAATAATTTATTCACACATACAAAAGTTTACAAA [CACACA_site5666] | 8.47 ± 0.47 |
| TATTTTATTTCAAATCTTAATAATTGTAATTCTTCA [XGTACX_negctrl_site442] | 8.1 ± 0.63 |
| TGTGTAATACATAATACACACATGTATATGTCGCAT [CACACA_site4757] | 8.49 ± 0.49 |
| TTTTAATTAGAAATCATACACACATATATATATATA [CACACA_site174] | 10 ± 0.26 |
| ATTTTTAAAATAAATACATGCATATATTTATATGTT [TGCATGCA_site394] | 8.54 ± 0.37 |
| AAAAAAAAAGAGGCGTGTACATATATAATTTAAATT [XGTACX_site6827] | 8.81 ± 0.44 |
| ATAATAGAAACAAACAGTACACATACCTAAAAGGAA [XGTACX_site8647] | 8.73 ± 0.6 |
| TGTTCTAATATTTGTTGTACATTTACATTTCTCTCT [XGTACX_site2585] | 8.87 ± 0.45 |
